Measurements from the RNAGym collection of RNA variant scans (doi:10.7554/elife.90254).
Read counts are not given, so values of variants with three or more changes are uncertain.

B1: LINE1-mini (parent)
chain: GGCAGAGCUCAACACAGCGUGGCAAAGUGGCUGUGGCUAGACUGCC

Variants of: B1
Test: self-cleavage, relative activity (ratio to wild type); higher = more cleavage; in vitro, sequencing; the parent is a self-cleaving ribozyme

Variant	self-cleavage
G5C A6U A16C A39U	0.01
C10A A25G A26G C42A	0.01
G2U A11C G19U A26G G35U	0.01
A12C A25U A26C	0.02
G1U C3G U9C A39U C45A	0.01
G19A G22C G29C	0.35
A14G G36U U38G G40A C42A G44A	0.02
U9C A14C U34G	0.01
G21C A39U U43A	0.05
G5A G21U U32G	0.03
U9C A11U C18A C37U G40U	0.03
G22U A24C A39C A41C	0.07
C3G A24G A39U	0.17
U9C G17U U20A G22C G33A	0
C3A A6G A16C G44C	0.02
A4U C10A U32G G36C C37A	0.04
U9G C18U G21U	0.03
A11C C13U G27C G30A U43C	0.01
G5U A16U G33A C42A G44A	0.02
G19U U20A C23A G36C	0.04
G30C G33U C42A	0.05
C10A G35A G44A	0.03
G19A A26U U38G	0.02
C3G G17C C45G	0.32

Variant	self-cleavage
G1A C18A U20A A26G G27U	0.19
C10A A11U A25U G30U C31A	0
G30U G36C C37A	0.03
G22A U38G G40A	0.01
C31G U32C G33U	0.12
C13A G19A U32A G35U	0.03
A6C C8G G22U C46G	0.02
C10A G19A A24C	0
C15G G19A G27U U38G	0.02
C10A G21C G30U C31G	0.03
U9A G21U G35A G40C C46A	0.07
G5U G7U A11U A26C	0
A12C C45A C46A	0.03
G2C C13G A39G	0.07
G1U A11C C46A	0
C8U A11G A12U G19U	0.02
A6U G22C U28A C45U	0.92
U28A U32C A41G	0.03
G30C C31A U43G C46U	0.03
C13G C18G U28G	0.32
G1U U9G U20C A25U	0.01
A14U G19C G21C A24U G29U G30C U43A	0.02
G2C C10A A11U C13A A14C C31U C37U C42G	0
A4U C8G G29U U32A	0.06

Variant	self-cleavage
A11G C15G G27C U32C G33U C42A C45U	0
A26U G29A G30C C31A	0.58
A25G G30U G33A	0
A11C U38G G40U	0.01
G2A G7A U20A G22U G30A C31G	0.17
G2U A14U G44A	0.08
C3G A26G U28C C31U	0.11
C3U A4G A12C	0.15
C13A G19C C31G A39U	0.08
C15A G27A G33U	0.56
C3U A26C A39U	0.34
U32A G36C C45A	0.03
U9C A26C G35A A39G	0.01
C3U A6C C8G G27U	0.05
C15G G27C C37A	0.01
C8G U20A C37U	0.03
G35C G44A C46A	0.02
C8A C10A A11U G35C G36C	0.02
G7U C10A G29U G35U G40A	0.01
G2C G19C G30A G40U	0.05
G5A C13U C18U U38G G44C	0.01
C15G G17A G19U G29A C31U	0
G17C C23U C45A	1.52
G7C C23A U28G C31U	0.01

Variant	self-cleavage
G7U A25G G40C	0.02
A6U C8U C13A C23G U28G	0.52
G27C C31U C37U	0.02
C18U A24G A25U G27A C46G	0.23
A25C U32G G35C	0.1
C3A G5U G30U G33A C42A U43C	0.1
C10A C13A G44U	0.05
A11C A26U G30U	0
C15G A16U G21U C23G G44A	0.02
C3A A14U C31G G33A	0.24
A11U U38C A41U	0.01
C8U G19C G27A G33U A41C	0.03
G2U U20A A41U	0.05
C3U A4C G27A	0.06
G7C A26C G30U G35C	0.06
A6G A14C G40U A41C	0.17
C3A G5A A14C A16U G19A U43G	0.1
G2A A11C C15U A16U G17A	0.03
G22C A24G G44U	0.07
C15G A25C C31A C42G	0
G5U A12G C15A A26U G30C G36U A39G U43G	0.02
A4G A14U U20A G44A	0.01
G19C G27A G36U	0.01
C8G C13A A25U	0

Variant	self-cleavage
C3A G21A G29U	1.71
A11C C13U A14G G29U	0
G22C G33C C46U	0.1
G7U G30C G40C	0.24
G1U G7C C13U	0.07
G5A A6G G22A A24C	0.01
C13U A14C U38G	0.02
G2U G21C A24U G36A	0.01
G1U A6G G19C G21C G29A C46U	0.02
C3A G22A G40U	0.12
A4U C18U G21C U32A C37A G44C	0
G5A G21C G27A	0.07
C3G A12G C37G	0.04
A24C C42U U43G	0
A4G G22A G35U A41G	0.16
A6G G7C G30U G33C G36C	0.04
G5C C15A G44A	0.02
A16U G17U G29U U34C	0.07
C18U G27C G30U	0.62
G5U G27A A41G	0.03
G1A C3A G7C C10G C15U A24U U28G	0.25
G7C U9G G36U	0.06
A4U A6G C13G	0.48
G2A C8U U9C G27A	0.06

Variant	self-cleavage
U9A G17C C37G	0.05
A4G C8A G17C	0.05
A11U U28A G29A U34C C42U	0.01
G7U A11U C13A G21U G27C	0.01
A16G G22A G30U	0.2
G35C U38A G40U	0.1
G1A G17A U20G U34A U43A	0.04
C3U G33A G40A G44A	0.05
G1A G7U A14U G35C G40C	0.52
G2A C15G G27C	0.03
G7U C18U U20C G30C C42G	0.03
C3A C8A C15A C18U	0.23
C3A C8U G17A G19A G30A C46U	0.11
C18U C23G G29U U32A	0.05
G1A C10U A11C A16C	0.02
C3U G29U U32C G40U U43A	0.06
A11G C31A C46U	0.03
G5U A12G G36A	0.07
C3A A11C C37U	0.05
C10A A12C A14U	0.05
C8U G27C U28G	0.06
G7U A16G U28A C37G	0.02
A6G A12C U20A	0
G5U A6G U28A	0.07

Variant	self-cleavage
A25U G30U A41C	0.04
G7U U20A G36A	0.04
A4U A12G G19U	0
G7C U9C C10G A11U G30A C37U	0.01
C10A A26C U34C	0.01
C3G A24C C31A	0.09
C3G C13G G22A C31A G33C C46A	0.05
U38A A39U C46U	0.72
G2C C18G G35C	0.06
G7C C18G G33C U38A	0.01
A26C C31A G33U U38A C45G	0.02
G21C C23A C45G	0.09
A16C A25G G30U	0.04
C3G C18U A24U	0.15
G5U G7C U20C	0.11
G5C U20G A25G	0.11
G5U A11C G21C C37U	0.01
A6C C10G G27C A39G	0
G5C C15G C18A C45A	0.02
A6U A12U A16G C23G	0.14
C10U G22A C31U U32A U38A	0.06
G2U G29U G36U	0.05
A12U U28G C46U	0.29
